Assay results from paper PMC4336329 (PLoS ONE, 2015).
Hit rate of the full screen: of about 310,000 compounds, about 2,200 (0.71%) showed an effect of 50% or more. The effect is printed as a negative number. The list shows a part of the results.

What follows are molecules tested against human ether-à-go-go-related gene (hERG) potassium channel (human, UniProt Q12809) (assay: primary screen, population patch clamp on CHO cells stably expressing hERG).
Sequence of human ether-à-go-go-related gene (hERG) potassium channel (Q12809 whole entry, looked up): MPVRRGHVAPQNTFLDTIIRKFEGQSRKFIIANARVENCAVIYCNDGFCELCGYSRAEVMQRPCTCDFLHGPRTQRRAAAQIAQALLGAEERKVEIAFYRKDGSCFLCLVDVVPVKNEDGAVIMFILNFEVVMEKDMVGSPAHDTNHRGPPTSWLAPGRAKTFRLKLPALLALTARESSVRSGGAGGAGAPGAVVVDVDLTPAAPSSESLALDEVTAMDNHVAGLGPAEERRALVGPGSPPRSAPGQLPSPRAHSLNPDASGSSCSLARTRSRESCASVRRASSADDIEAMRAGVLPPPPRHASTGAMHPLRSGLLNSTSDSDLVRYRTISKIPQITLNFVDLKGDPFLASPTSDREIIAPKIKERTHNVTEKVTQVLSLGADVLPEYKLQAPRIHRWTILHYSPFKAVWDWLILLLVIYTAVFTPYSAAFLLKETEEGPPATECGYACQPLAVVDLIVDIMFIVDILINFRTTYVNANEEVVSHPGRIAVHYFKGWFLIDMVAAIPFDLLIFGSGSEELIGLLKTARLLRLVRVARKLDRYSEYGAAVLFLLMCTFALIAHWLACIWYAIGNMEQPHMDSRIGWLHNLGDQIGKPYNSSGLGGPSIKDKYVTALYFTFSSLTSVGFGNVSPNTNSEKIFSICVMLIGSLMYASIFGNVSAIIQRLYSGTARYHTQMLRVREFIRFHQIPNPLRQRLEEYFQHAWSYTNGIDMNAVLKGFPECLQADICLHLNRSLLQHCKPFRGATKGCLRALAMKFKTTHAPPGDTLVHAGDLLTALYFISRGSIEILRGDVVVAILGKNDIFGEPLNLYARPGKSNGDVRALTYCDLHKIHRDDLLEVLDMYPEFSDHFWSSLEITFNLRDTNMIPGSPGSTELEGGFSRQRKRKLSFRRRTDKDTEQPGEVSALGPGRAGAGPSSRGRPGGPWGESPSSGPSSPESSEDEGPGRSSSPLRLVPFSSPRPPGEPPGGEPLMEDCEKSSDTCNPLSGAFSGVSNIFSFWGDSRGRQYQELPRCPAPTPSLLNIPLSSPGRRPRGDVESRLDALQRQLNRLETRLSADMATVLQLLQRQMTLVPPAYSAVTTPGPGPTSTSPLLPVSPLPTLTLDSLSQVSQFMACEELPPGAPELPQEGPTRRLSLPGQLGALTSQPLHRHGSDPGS

Row | SMILES | hERG current change (%, negative = inhibition) at 1uM
1 | COc1ccc(NC(=S)N(CCO)Cc2ccccc2)cc1 | 6.21%
2 | CCCNC(=O)c1ccccc1NC(=O)Cc1ccc(OC)c(S(=O)(=O)N2CCOCC2)c1 | -3.17%
3 | CCOC(=O)C1C(=O)OC(C)(C)C1C(CC)C(=O)c1ccccc1 (stereo not shown) | 6.46%
4 | COc1cc(/C=C2\SC(c3ccc(C)cc3)=NC2=O)ccc1O | -3.46%
5 | CN(CCc1ccccc1)Cc1nc(-c2cnccn2)no1 | 21.3%
6 | Br.N=c1n(CCN2CCCCC2)c2ccccc2n1CC(=O)c1cccc([N+](=O)[O-])c1 | -36.6%
7 | O=C(c1ccco1)N1CCCC(c2nc3c(nnn3Cc3ccc(F)cc3)c(=O)[nH]2)C1 (stereo not shown) | 1.6%
8 | Cc1cc2oc(C(=O)Nc3nonc3C)c(C)c2cc1C | 7.76%
9 | O=C(c1ccccc1Cl)N1CCCC(c2nc3c(nnn3Cc3ccccc3)c(=O)[nH]2)C1 (stereo not shown) | -8.97%
10 | CCOc1ccccc1C(=O)N(Cc1ccco1)C1CCS(=O)(=O)C1 (stereo not shown) | 3.29%
11 | CCN(CC)CCCNC(=O)CN1C(=O)CSc2ccc(S(=O)(=O)N3CCOCC3)cc21 | -4.23%
12 | COc1cccc(-c2nc(-c3ccc(Br)o3)no2)c1 | 13%
13 | Cn1c(=O)c2c(SCC(=O)NCCc3ccccc3)nc(C3CC3)nc2n(C)c1=O | 6.15%
14 | COc1ccc(CN2CCN(S(=O)(=O)c3ccc(NC(C)=O)cc3)CC2)cc1.O=C(O)C(=O)O | 5.18%
15 | Cc1ccc(-c2ccccc2NC(=O)CCl)o1 | 3.98%
16 | COc1ccc(N2CCN(C(=O)C34CCC(C)(C(=O)C3)C4(C)C)CC2)cc1 (stereo not shown) | 0.667%
17 | O=C(CCN1C(=O)[C@@H]2Cc3ccccc3CN2C1=O)Nc1cccc(F)c1 | 18%
18 | CC1CCC(NC(=O)CCNS(=O)(=O)c2ccccc2)CC1 (stereo not shown) | 8.01%
19 | COCCNC(=O)CN(C(=O)Cn1nnc2ccccc21)c1ccc(C)c(F)c1 | 11%
20 | COc1ccc(/C=N/NC(=O)c2cccnc2)cc1CN1CCOCC1 | 11.4%
21 | CCOC(=O)C1CCN(C(=O)CCn2c(=O)[nH]c3ccsc3c2=O)CC1 | 5.9%
22 | COc1ccc(-c2csc(N(Cc3ccco3)C(=O)c3cccs3)n2)cc1 | 2.71%

Row | SMILES | hERG current change (%, negative = inhibition) at 1uM
23 | CC(C)N1CCN(Cc2ccc3nsnc3c2)CC1CCO (stereo not shown) | 12.1%
24 | CCOC(=O)C1=C(C)Nc2ccc(C)cc2S1 | 12%
25 | CNc1nnc(C(F)(F)F)s1 | 14.9%
26 | C/C(=N\NC(=O)Cn1cc([N+](=O)[O-])cn1)c1ccc(O)cc1 | -1.75%
27 | O=C(Nc1ccccc1Oc1ccccc1)C1CCCC1 | 18.4%
28 | O=C(NCc1ccc2c(c1)OCO2)C1CCN(C(=O)Nc2ccc(Cl)cc2)CC1 | -5.19%
29 | C#CCOCCOCCOCCNc1nc(N2CCN(C(=O)[C@H]([C@@H](C)CC)n3cc([C@@H](N)Cc4ccc(O)cc4)nn3)CC2)nc(N2CCN(C(=O)[C@H](Cc3cc4ccccc4[nH]3)n3cc([C@@H](N)C(C)CC)nn3)CC2)n1.Cl (stereo partly shown) | 8.93%
30 | Cc1ccc2c(c1)N(CC(=O)NCCCN1CCCCC1C)C(=O)c1cccnc1O2 (stereo not shown) | 13.2%
31 | CCOC(=O)CNC(=O)Cn1cnc2sc(C)c(S(=O)(=O)N3CCOCC3)c2c1=O | 15.2%
32 | COc1cccc(/C=N/NC(=O)c2c(C)nc3ccc(Cl)cn23)c1OC | 19.7%
33 | N#Cc1ccc(-c2cn(-c3ccccc3)c3[n+]2CCCS3)cc1.[Br-] | 13.9%
34 | COc1ccc(-n2c(C)cc(/C=N/Nc3nc(N4CCOCC4)nc(N4CCOCC4)n3)c2C)cc1 | 4.59%
35 | CCCCN(C1CCS(=O)(=O)C1)S(=O)(=O)c1cccs1 (stereo not shown) | 5.63%
36 | CS(=O)(=O)N(Cc1ccccc1)c1ccccn1 | 16.3%
37 | COc1ccc(CCNC(=O)C2CCC(CNc3c(N4CCCC4)c(=O)c3=O)CC2)cc1OC (stereo not shown) | 11.5%
38 | C/C(CC(=O)Nc1ccc(Cl)cc1C(F)(F)F)=N\NC(=O)c1cccs1 | 1.13%
39 | COc1cc(C(=O)Nc2nc(-c3cc(C)ccc3C)c(C)s2)ccc1OCC(=O)Nc1ccc(F)cc1 | 3.66%
40 | COc1cc(C2=NOC(C(=O)N3CCCCCC3)C2)cc(OC)c1OC (stereo not shown) | 7.02%
41 | O=C(NCC1CCCO1)c1cncc(Br)c1 (stereo not shown) | 15.2%
42 | c1ccc2c(CNCCN3CCOCC3)cccc2c1 | 6.83%
43 | COC(=O)[C@H](CCSC)NC(=O)NCCc1ccccc1F | 7.86%
